According to PubChem BioAssay AID504332 (National Center for Advancing Translational Sciences (NCATS), 2011):
Out of some 350,000 compounds screened, about 31,000 (8.9%) were called active. Inconclusive means that the source gave no clear call. Such entries were picked first, then a sample of the others. The call rests on the fitted dose curve; in most records, active means well fitted inhibition curve with a large enough effect; inconclusive means small, poorly fitted or top-dose-only effect; inactive means no such curve, though single readings can be large or run the other way. Potencies of inconclusive entries are doubtful fits and often do not repeat.

The compounds below were run against Histone-lysine N-methyltransferase EHMT2 (Homo sapiens) (UniProt Q96KQ7) (assay: qHTS Assay for Inhibitors of Histone Lysine Methyltransferase G9a). Details: G9a H3K9 monomethylation, AlphaScreen, 2 h; activity, negative = inhibition: at 59 µM (top of the series) unless noted.
In short: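 G9a (20 nM) preincubated 15 min RT with compounds, then 500 nM biotinylated H3K9 peptide and 20 uM SAM added; 2 h RT reaction. Monomethyl-H3K9 product detected by AlphaScreen with anti-H3K9me1 antibody, streptavidin donor and anti-rabbit IgG acceptor beads.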
Further: nearly all actives have a fitted effect of over 75% in size.
On the % scale 0 is the no-effect control and ±100 the full control effect; potency means the concentration at half of the fitted maximal effect; tags describe the fitted curve by direction and shape.

Sequence of UniProt Q96KQ7 (Q96KQ7 whole entry, looked up): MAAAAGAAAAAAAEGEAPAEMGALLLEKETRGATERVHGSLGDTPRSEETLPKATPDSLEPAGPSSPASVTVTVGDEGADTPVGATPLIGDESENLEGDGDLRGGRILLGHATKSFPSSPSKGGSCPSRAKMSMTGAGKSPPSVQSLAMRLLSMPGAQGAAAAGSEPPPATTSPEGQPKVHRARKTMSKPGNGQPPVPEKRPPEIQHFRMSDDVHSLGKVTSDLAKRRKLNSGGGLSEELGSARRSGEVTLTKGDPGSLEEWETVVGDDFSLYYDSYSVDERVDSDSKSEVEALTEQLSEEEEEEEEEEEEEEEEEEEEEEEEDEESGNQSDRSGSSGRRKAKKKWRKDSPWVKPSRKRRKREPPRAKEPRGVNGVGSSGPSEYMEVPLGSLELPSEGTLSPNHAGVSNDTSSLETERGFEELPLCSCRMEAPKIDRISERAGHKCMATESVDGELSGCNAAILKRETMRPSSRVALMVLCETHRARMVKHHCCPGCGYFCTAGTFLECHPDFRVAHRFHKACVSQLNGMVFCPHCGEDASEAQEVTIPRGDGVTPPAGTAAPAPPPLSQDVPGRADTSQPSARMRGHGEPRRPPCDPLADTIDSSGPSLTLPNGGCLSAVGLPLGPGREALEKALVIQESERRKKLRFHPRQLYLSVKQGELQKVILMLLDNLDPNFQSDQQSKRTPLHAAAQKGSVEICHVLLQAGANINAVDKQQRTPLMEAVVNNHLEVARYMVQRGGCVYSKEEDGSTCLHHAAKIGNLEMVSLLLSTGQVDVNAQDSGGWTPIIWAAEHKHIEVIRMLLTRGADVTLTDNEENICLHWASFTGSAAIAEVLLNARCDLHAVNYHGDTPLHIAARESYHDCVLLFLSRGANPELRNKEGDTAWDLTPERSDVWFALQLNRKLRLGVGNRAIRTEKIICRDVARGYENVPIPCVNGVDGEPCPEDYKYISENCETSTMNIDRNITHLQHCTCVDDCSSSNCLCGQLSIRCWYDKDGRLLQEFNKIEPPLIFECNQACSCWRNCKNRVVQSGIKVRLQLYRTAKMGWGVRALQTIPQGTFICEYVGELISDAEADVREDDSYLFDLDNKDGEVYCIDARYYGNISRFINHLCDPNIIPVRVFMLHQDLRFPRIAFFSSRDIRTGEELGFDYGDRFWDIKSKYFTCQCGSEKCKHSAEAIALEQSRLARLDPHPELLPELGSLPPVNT

Row | Structure (SMILES) | Potency | activity, negative = inhibition
1 | Cc1ccc(C(=O)c2cc([N+](=O)[O-])ccc2N2CCN(C)CC2)cc1 | inconclusive: 79.4 µM [inhibitor, single point] | –
2 | COc1cc(CC2COC(c3ccc(O)c(OC)c3)C2COC(C)=O)ccc1O (stereo not drawn) | – | inconclusive: -102% [inhibitor]
3 | Cn1c(=O)[nH]c(NC2CCCCC2)c(N=O)c1=O | inconclusive: 15.8 µM [inhibitor, single point] | –
4 | CCOc1ccccc1C(=O)N1CCCCC1CCN1CCOCC1 (stereo not drawn) | – | inactive: -5.51%
5 | Cc1ccc(-c2nc3cc(NC(=O)c4cc(Br)ccc4Cl)ccc3o2)cc1 | inconclusive: 12.6 µM [inhibitor, partial curve, poor fit] | –
6 | Cc1cccn2cc(CCNS(=O)(=O)c3ccc([N+](=O)[O-])cc3)nc12 | inconclusive: 89.1 µM [inhibitor, single point] | –
7 | COCc1cc(C)n(CC(=O)Nc2cccc(C(C)=O)c2)c(=O)c1C#N | inconclusive: 31.6 µM [inhibitor, single point] | –
8 | Cc1ccc2c(C(=O)CN3CC(C)CC(C)C3)c(C)[nH]c2c1 (stereo not drawn) | inconclusive: 89.1 µM [inhibitor, single point] | –
9 | Cc1ccc(C)c(C(=O)CSc2nc3cc(C(=O)NC4CCCC4)ccc3c(=O)n2CC2CCCO2)c1 (stereo not drawn) | – | inactive: 3.29%
10 | CCc1ccc(-c2cc(-c3n[nH]c(=S)n3CC)c3ccccc3n2)cc1 | inconclusive: 39.8 µM [inhibitor, single point] | –
11 | Cc1ccc(NC(=O)CN2C(=O)/C(=C3\SC(=S)N(C4CCS(=O)(=O)C4)C3=O)c3ccccc32)cc1 (stereo not drawn) | active: 50.1 µM | –
12 | O=C(CN1CCN(c2ccccc2)CC1)Nc1ccc(OCc2ccccc2)cc1 | inconclusive: 44.7 µM [inhibitor, partial curve, poor fit] | –
13 | O=C(C1=C(O)C(=O)N(Cc2cccnc2)C1c1ccccn1)c1cccs1 (stereo not drawn) | – | inconclusive: -93.3% [inhibitor]
14 | COc1ccc(N2CCN(Cc3nc(-c4ccc(C)cc4)no3)CC2)cc1 | inconclusive: 14.1 µM [inhibitor, partial curve, poor fit] | –
15 | O=C(C[N+]1(CC#Cc2ccccc2)CCCCC1)c1ccc(Cl)cc1 | inconclusive: 44.7 µM [inhibitor, partial curve] | –
16 | COc1cccc(C(=O)N(Cc2cc3cc(C)ccc3[nH]c2=O)C(C)C)c1 | inconclusive: 50.1 µM [inhibitor, partial curve] | –
17 | COc1ccc(-c2cc(C(=O)N/N=C/c3ccc4c(c3)OCO4)c3ccccc3n2)c(OC)c1 | – | inactive: 12.1% [at 2.33 µM]
18 | Cc1ccc2[nH]c(=O)c(C(c3nnnn3Cc3ccccc3)N3CCc4ccccc43)cc2c1 (stereo not drawn) | active: 28.2 µM | –
19 | CC(=O)Nc1cccc(/C(C)=N/NC(N)=S)c1 | active: 31.6 µM | –
20 | Nc1ccccc1-c1n[nH]c(=S)s1 | active: 0.631 µM | –
21 | COc1ccc(-c2csc(-c3c(N)c(C(=O)c4ccccc4)n4ccccc34)n2)cc1 | – | inactive: 43.3%
22 | COc1ccc2nc3cc(Cl)ccc3c(Nc3cc(CN4CCCC4)c(O)c(CN4CCCC4)c3)c2n1 | inconclusive: 8.91 µM [inhibitor, single point] | –
23 | COC(=O)c1cccc(NC(=O)c2ccco2)c1 | – | inactive: -2.39%
24 | COc1ccc(OC)c(C2NC(=S)NC3=C2N2CCC3CC2)c1 (stereo not drawn) | – | inactive: -6.52% [at 102 µM]
25 | Cc1ccc(NC(=O)CNc2ccccc2N2CCCC2=O)cc1S(=O)(=O)N1CCCCC1 | active: 3.16 µM | –

Row | Structure (SMILES) | Potency | activity, negative = inhibition
26 | CCN(CCCNC(=O)c1[nH]c(C)c(C(C)=O)c1C)c1cccc(C)c1 | – | inconclusive: -67.6% [inhibitor]
27 | CCOC(=O)CCCCC(=O)c1[nH]c(=O)[nH]c1Cn1cnc2ccccc21 | inconclusive: 25.1 µM [inhibitor, single point] | –
28 | Cc1cccc(NC2=C(NC(=O)c3ccccc3)C(=O)c3ccccc3C2=O)c1 | active: 3.16 µM | –
29 | Cc1nnc(SCC(=O)Nc2ccc(Br)cn2)[nH]c1=O | active: 50.1 µM | –
30 | COc1ccccc1C(=O)/C=C/c1ccc(N2CCCCC2)c([N+](=O)[O-])c1 | active: 12.6 µM | –
31 | Cc1cc(C)cc(-n2ccnc2SCC(=O)Nc2ccc(C)c(Cl)c2)c1 | active: 10 µM | –
32 | Cc1ccc(N(C(=O)Cn2nnc(-c3ccc(C)o3)n2)C(C(=O)NC2CCCC2)c2ccncc2)cc1 (stereo not drawn) | – | inactive: 11.2% [at 102 µM]
33 | CC(C)c1ccc(S(=O)(=O)c2cnc(SCC(=O)Nc3ccc(F)cc3F)nc2N)cc1 | – | inactive: 5.68%
34 | Cc1cnnc2ccc3c(no[n+]3[O-])c12 | inconclusive: 70.8 µM [inhibitor, partial curve, poor fit] | –
35 | CCC1CCCCN1CCCNC(=O)CCC(=O)N1CC(C)Oc2ccccc21 (stereo not drawn) | – | inactive: 24% [at 102 µM]
36 | COc1cccc(N2CC(NS(=O)(=O)c3ccc4ccccc4c3)CC2=O)c1 (stereo not drawn) | inconclusive: 31.6 µM [inhibitor, partial curve, poor fit] | –
37 | O=C(Nc1ccccc1)C1CCN(S(=O)(=O)c2cccs2)CC1 | – | inactive: -3.44%
38 | COc1ccc(NS(=O)(=O)c2ccc(NC(=S)NC(=O)c3ccc(F)cc3)cc2)nn1 | inconclusive: 39.8 µM [inhibitor, single point] | –
39 | O=[N+]([O-])c1ccc(S(=O)(=O)N/N=C/c2ccc3c(c2)OCO3)cc1 | active: 50.1 µM | –
40 | CSc1ccccc1C(=O)NCc1cccnc1 | – | inconclusive: -57.9% [inhibitor] [at 102 µM]
41 | O=C(Cc1ccccc1)NNS(=O)(=O)c1ccccc1[N+](=O)[O-] | inconclusive: 89.1 µM [inhibitor, single point] | –
42 | COCCCNCC#CCOc1ccc(OC)cc1 | active: 17.8 µM | –
43 | O=C(/C=C/c1cccs1)c1cc(Br)ccc1OC(=O)N1CCOCC1 | inconclusive: 100 µM [inhibitor, single point] | –
44 | O=C(CN1CCN(c2cccc(C(F)(F)F)c2)CC1)Nc1cccc(C(F)(F)F)c1 | inconclusive: 5.01 µM [inhibitor, single point] | –
45 | Cc1[nH]c2ccccc2c1C1=CN2CCS(=O)(=O)N=C2S1 | inconclusive: 89.1 µM [inhibitor, partial curve, poor fit] | –
46 | O=C(/C=C/c1cccs1)N1CCCCC1 | – | inactive: 22.7% [at 102 µM]
47 | CC1=NC(=O)C(N=Nc2cccc(C(=O)O)c2)N1c1ccccc1 (stereo not drawn) | inconclusive: 1 µM [inhibitor, single point] | –
48 | CCCNC(=O)C(Cc1ccccc1)NS(=O)(=O)c1ccc2c(c1)c(=O)n(C)c(=O)n2C (stereo not drawn) | inactive | –
49 | Cc1cccc2cc(C(c3nnnn3CC3CCCO3)N3CCc4ccccc4C3)c(=O)[nH]c12 (stereo not drawn) | active: 3.16 µM | –
50 | CSc1ncccc1C(=O)Nc1ccc2c(c1)OCO2 | inconclusive: 1 µM [inhibitor, single point] | –

Row | Structure (SMILES) | Potency | activity, negative = inhibition
51 | COc1cccc(C2C=C(c3ccc(Br)s3)Nc3ncnn32)c1OC (stereo not drawn) | active: 28.2 µM | –
52 | COc1ccc(NCCC(O)c2ccc(Cl)cc2)cc1 (stereo not drawn) | inconclusive: 70.8 µM [inhibitor, single point] | –
53 | COc1ccc(OC)c(/C=C(\C#N)c2nc(-c3ccc(F)cc3)cs2)c1 | – | inactive: 97.8%
54 | COc1ccc(CCNC(=O)c2coc(=O)c(Br)c2)cc1 | – | inactive: 11.6% [at 0.501 µM]
55 | Cc1ccc(NC(=O)NC(=O)N(C2CCCCC2)S(=O)(=O)c2ccccc2)cc1 | inconclusive: 39.8 µM [inhibitor, single point] | –
56 | Cc1ccc(OS(=O)(=O)c2cn(C)c(=O)n(C)c2=O)cc1C | – | inactive: 11.6%
57 | CC1(C)CC2CC(C)(CN2CC(O)c2ccccc2)C1 (stereo not drawn) | active: 22.4 µM | –
58 | COc1ccc2c(c1)CCc1c(C(=O)Nc3ccc(OC)cc3OC)noc1-2 | – | inactive: -3.1%
59 | COc1ccccc1NC(=O)c1sc2nc3n(c(=O)c2c1C)N=C(c1cccc(Br)c1)CS3 | – | inactive: 11.5%
60 | CCOc1ccc(N2C(=O)C(CC(=O)Nc3ccccc3)N(Cc3ccccn3)C2=S)cc1 (stereo not drawn) | inconclusive: 39.8 µM [inhibitor, single point] | –
61 | COc1cc(CNC(C)C)c(Br)cc1OC1CCCC1 | – | inactive: -30.5% [at 102 µM]
62 | Cn1cccc1CNCc1ccccc1Cl | – | inactive: -7.75% [at 2.33 µM]
63 | COc1ccc(NC(=O)N2CC[C@@]3(CCCN(C(=O)c4ccncc4)C3)C2)cc1 | – | inactive: 5.88% [at 12.7 µM]
64 | CCOc1ccc(-c2cn(-c3ccccc3OC)c(=S)[nH]2)cc1 | inconclusive: 6.31 µM [inhibitor, partial curve, poor fit] | –
65 | CC(/C=C/c1ccco1)=N/NC(=O)OC(C)(C)C | active: 70.8 µM | –
66 | CCOc1ccc(NC(=O)Cc2c[nH]c3ccccc23)cc1 | inconclusive: 25.1 µM [inhibitor, single point] | –
67 | COc1ccc(NC(=O)COC(=O)Cn2cnc3ccccc3c2=O)c(OC)c1 | – | inactive: -3.67% [at 12.7 µM]
68 | COc1ccc(NC(=O)CCS(=O)(=O)c2ccc3nc(C)sc3c2)cc1OC | inconclusive: 39.8 µM [inhibitor, single point] | –
69 | CCn1cc(SCC(=O)NCC2CCCO2)c2ccccc21 (stereo not drawn) | inconclusive: 1.41 µM [inhibitor, single point] | –
70 | CCc1noc(C)c1C(=O)N(CCOC)c1c(N)n(CC(C)C)c(=O)[nH]c1=O | inconclusive: 89.1 µM [inhibitor, single point] | –
71 | CCN1CCc2c(sc(NC(=O)c3ccc(S(=O)(=O)N4CCCCCC4)cc3)c2C(=O)NC)C1 | inconclusive: 89.1 µM [inhibitor, single point] | –
72 | COc1ccc(NC(=S)Nc2ccc(N)c([N+](=O)[O-])c2)cc1 | inconclusive: 2.82 µM [inhibitor, partial curve, poor fit] | –
73 | CC(=O)Nc1ccc(S(=O)(=O)N2CCOCC2)cc1 | inconclusive: 0.794 µM [inhibitor, partial curve, poor fit] | –
